The test system of the assay is 967376-340-R-J2-PDC multicell spheroid viability. In words: Anticancer human tumor 967376-340-R-J2-PDC patient-derived colon adenocarcinoma cell line growth inhibition [PI3K]. The note with it: for viability, T/C: stronger effect = lower value; for IC50: compound alone. From the text: Combinatorial screen of targeted agents with the PI3K inhibitors inavolisib, alpelisib, duvelisib, and copanlisib in multi-cell type tumor spheroids
A high-throughput screen of multi-cell type tumor spheroids was designed to identify active combinations of targeted small molecules and PI3K pathway inhibitors. Complex spheroids include a stromal component modeled by human endothelial cells (HUVEC) and fibroblasts modeled by human mesenchymal stem cells (MSCs). The concentration ranges selected for each drug and investigational agent were based upon clinically achievable concentrations if the clinical Cmax of the agent was known.
Compounds. The drugs and investigational agents: inavolisib (NSC800729), alpelisib (NSC765974), duvelisib (NSC772469), copanlisib (NSC816437), ipatasertib (NSC767898), afuresertib (NSC778305), talazoparib (NSC767125), sapanisertib (NSC764658), selumetinib (NSC741078), tovorafenib (DAY101, NSC766906), vemurafenib (NSC761431), ravoxertinib (NSC781343), sotorasib (NSC818433), MRTX1133 (NSC 836407), abemaciclib (NSC 768073), palbociclib (NSC758247), venetoclax (NSC 766270), SY5609 (NSC837396), enzalutamide (NSC755605), and darolutamide (NSC825331), were obtained from the National Cancer Institute (NCI) Developmental Therapeutics Program Chemical Repository. The FDA-approved anticancer drug set is available from the NCI Developmental Therapeutics Program. […] The stock solutions were prepared in dimethyl sulfoxide (DMSO, Sigma-Aldrich, St. Louis, MO, cat. D2650) at 800-fold the tested concentration and stored at -70 degrees C prior to their use. All drugs and investigational agents were tested over a range starting from a high concentration at or near the clinical Cmax and decreasing in half-log increments. If the clinical Cmax for an agent had not been determined, the highest concentration tested was 10 microM.
Cell Culture. All cells were maintained in an incubator at 37 degrees C and 5% CO2 with 95% humidity. The PDC lines were cultured according to standard operating procedures established by the NCI PDMR (https://pdmr.cancer.gov/sops/default.htm). All PDCs were thawed and cultured in Matrigel-coated flasks prepared with a working solution of 1X Ham's F-12 nutrient mix, without supplementation (Invitrogen, Waltham, MA, cat. 11765054), 100 U/mL penicillin-streptomycin (Invitrogen, cat. 15140122), and 2.5% Matrigel (Corning Inc., Corning, NY, cat. 354248) for the first three passages. The 354836-022-R-J1-PDC, 475296-252-R-J1-PDC, and 997726-040-R-J2-PDC lines were cultured in 6A media, which includes advanced DMEM/F-12 (Thermo Fisher Scientific, cat. 12634028), 10 mM HEPES (Thermo Fisher Scientific, cat. 15630080), 1X GlutaMAX supplement (Thermo Fisher Scientific, cat. 35050061), 0.1 mg/mL primocin (InvivoGen, San Diego, CA, cat. ant-pm-2), 10% defined fetal bovine serum, heat inactivated (HyClone Laboratories Inc., Logan, UT, cat. SH30070.03HI), 50% L-WRN conditioned media (ATCC, cat. CRL-3276), 1.25 mM N-Acetyl-L-cysteine (Sigma-Aldrich, cat. A9165), 10 mM nicotinamide (Sigma-Aldrich, cat. N0636), 1X B-27 supplement (Thermo Fisher Scientific, cat. 17504044), 1X N-2 supplement (Thermo Fisher Scientific, cat. 17502048), and 10 microM Y-27632 dihydrochloride (Tocris Bioscience, Bristol, United Kingdom, cat. 1254). The 624824-186-R-J2-PDC line was cultured in 6C/Colon 1B media, which includes all 6A media components plus 50 ng/mL human EGF recombinant protein (Thermo Fisher Scientific, cat. PHG0311). […]

[1] abbreviates: combination with PI3K inhibitor, run of 06/12/2023.

For part of its entries the source gives two or more results. This is not the full list of results. The source may hold further records. The values listed for one entry are repeats across runs, samples, wells, individuals or studies. Additions like (4×) count equal records among those shown.
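Also: spheroids exposed to agents for 7 days before read-out.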
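For viability, T/C in this document: luminescence used as surrogate of cell viability.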

As for `CC1(C)CCC(CN2CCN(c3ccc(C(=O)NS(=O)(=O)c4ccc(NCC5CCOCC5)c([N+](=O)[O-])c4)c(Oc4cnc5[nH]ccc5c4)c3)CC2)=C(c2ccc(Cl)cc2)C1`, the viability, T/C (compound alone 10 µM) was 53.2, 72.1, 91.3, 64.2%.

The term IC50 denotes the point on the concentration scale where inhibition reaches its midpoint. Turning to `Cc1nc(NC(=O)N2CCCC2C(N)=O)sc1-c1ccnc(C(C)(C)C(F)(F)F)c1` (centres undefined), under setting [1], the IC50 is > 10 µM, 7.99 µM, 8.88 µM, 9 µM, 6.85 µM, 7.34 µM, 4.57 µM. Moreover, the viability, T/C (compound alone 0.0316 µM) was 76.8, 76.5, 97.5, 98, 101, 92.3, 80.5, 68.2%.

On to `C[C@@H](NC(=O)c1ncnc(N)c1Cl)c1ncc(C(=O)Nc2cc(C(F)(F)F)c(Cl)cn2)s1`, for which the viability, T/C (compound alone 0.0316 µM) is given as 104, 86.2, 69.4, 108%.

For the compound `CC(C)n1nc(-c2ccc3oc(N)nc3c2)c2c(N)ncnc21`, the viability, T/C is 112, 95.3, 89.7, 74.5% (compound alone 0.001 µM) and 78.3, 60.9, 103, 93.4% (compound alone 0.01 µM).

Take `CNC(=O)c1ccc(N2C(=S)N(c3ccc(C#N)c(C(F)(F)F)c3)C(=O)C2(C)C)cc1F`: the viability, T/C runs as follows: (compound alone 0.0316 µM) 95.7, 120, 100, 89.9%; (compound alone 3.16 µM) 121, 111, 99.7, 136%.

Turning to `Cn1ncc(Cl)c1-c1cc(C(=O)NC(CN)Cc2cccc(F)c2)sc1Cl` (centres undefined), the viability, T/C (compound alone 0.1 µM) is 104, 91.7, 84.1, 78.5% and the viability, T/C (compound alone 1 µM) is recorded as 65.4, 72.8, 74.9, 104%.

For `CC(Cn1ccc(-c2ccc(C#N)c(Cl)c2)n1)NC(=O)c1cc(C(C)O)[nH]n1` (centres undefined), under “compound alone 10 µM”, the viability, T/C was 82.9, 117, 94.8, 84.6%.

As for `C#Cc1c(F)ccc2cc(O)cc(-c3ncc4c(N5CC6CCC(C5)N6)nc(OCC56CCCN5CC(F)C6)nc4c3F)c12` (centres undefined), the viability, T/C (compound alone 0.316 µM) is 76.9, 113, 105, 84.9%; the viability, T/C (compound alone 1 µM) was 78.6, 81.6, 106, 85.6%; the viability, T/C (compound alone 10 µM) is recorded as 86.6, 60.9, 74.7, 67.8%.

With `CCCS(=O)(=O)Nc1ccc(F)c(C(=O)c2c[nH]c3ncc(-c4ccc(Cl)cc4)cc23)c1F`, the viability, T/C (compound alone 1 µM) is reported as 72.6, 100, 117, 105%.

For `Cn1cnc2c(F)c(Nc3ccc(Br)cc3Cl)c(C(=O)NOCCO)cc21`, the half-inhibitory concentration (IC50) is 807 nM, 612 nM, > 3 µM, 2.14 µM. For the same compound, the viability, T/C (compound alone 0.3 µM) is on record as 69.9, 59.5, 90.2, 81.2%. Further, the viability, T/C (compound alone 0.949 µM) is 48.8, 44.7, 75.8, 71.1%. The viability, T/C (compound alone 3 µM) is reported as 20.8, 18.1, 53.3, 41.2%.

Take `Cn1nccc1Nc1nccc(-c2ccn(C(CO)c3ccc(Cl)c(F)c3)c(=O)c2)n1` (centres undefined): the viability, T/C runs as follows: (compound alone 1 µM) 100, 75, 105, 112%; (compound alone 3.16 µM) 68.3, 109, 113, 111%.

With `CC1(C)CCC(Nc2ncc(C(F)(F)F)c(-c3c[nH]c4c(P(C)(C)=O)c(C#N)ccc34)n2)CN1` (centres undefined), the viability, T/C (compound alone 0.1 µM) was 75, 90.8, 90.5, 101%.

As for `COc1c(OCCCN2CCOCC2)ccc2c3n(c(=NC(=O)c4cnc(N)nc4)nc12)CCN3`, where the note is “compound alone 0.00316 µM”, the viability, T/C was 78.8, 77.5, 76.9, 97.7 (2×), 87.2, 90.6, 107%.

With `CC(Nc1ncnc2nc[nH]c12)c1cc2cccc(Cl)c2c(=O)n1-c1ccccc1` (centres undefined), the viability, T/C is on record as 89.1, 84.5, 88, 75.5, 97.3, 112, 96.9, 101% (compound alone 0.1 µM); 107, 86.4, 82.4, 83.7, 89.5, 110, 102, 95.1% (compound alone 3.16 µM); 103, 77.9, 86.8, 84.3, 85.8, 79.4, 106, 88% (compound alone 10 µM).

For `CC(Nc1ccc2c(c1)OCCn1cc(N3C(=O)OCC3C(F)F)nc1-2)C(N)=O` (centres undefined), the half-maximal inhibitory concentration (IC50) under setting [1] was 890 nM, > 1 µM, 809 nM, 777 nM. For the same compound, the viability, T/C runs as follows: (compound alone 0.00316 µM) 94.5 (2×), 95.6, 110, 78.8, 84.5, 88.8%; (compound alone 0.01 µM) 89.8, 84.2, 89.1, 82.8, 106, 96.3, 75.8%.

Source of the values: PubChem BioAssay AID1963962 (Molecular Pharmacology Branch, DTP, NCI, 2024).
